Reference: patent US20250136663A1 (IMMUNITYBIO, published 2025)

What was measured:
LAP (R&D Systems) = target: T1, LAP (R&D Systems) (UniProt P01137 in part); experiment: ELISA: HCW molecule captured on an anti-TF IgG1-coated plate, LAP titrated, detected with biotinylated anti-LAP antibody (BAM2462), HRP-SA and ABTS, OD405. The EC50 is the concentration of titrated LAP. The table prints no unit; pM is taken from the x axis.
T1 construct: domain: LAP
Description: TGFRt15-TGFRs (HCW9218) (10 μg/mL), HCW9228 (10 μg/mL), and TGFR*t15-TGFR*s (HCW9238) (10 μg/mL) were added to a 96-well plate coated with anti-TF IgG1 and incubated at room temperature (RT). The plates were washed and blocked with a blocking buffer of 1% BSA in PBS. Then, the plates were washed, LAP (R&D Systems) titrated down from 4000 pM to 31 pM, was added to the plates and the plates were incubated at RT. Then, the plates were washed, 100 ng/mL of biotinylated-anti-LAP antibody (BAM2462, R&D Systems) was added to the wells and the plates were incubated at RT. Next the plates were washed, and 0.2 μg/mL of HRP-SA (Jackson ImmunoResearch) was added to each well and incubated at RT, followed by incubation with ABTS at RT. Absorbance at 405 nm was read.

TGF-β1 (BioLegend) [1] = target: T2, TGF-β1 (BioLegend) (UniProt P01137 in part); experiment: cell-based or functional assay
TGF-β1 (BioLegend) [2] = target: T2, TGF-β1 (BioLegend); experiment: ELISA: HCW molecule captured on an anti-TF IgG1-coated plate, TGF-β1 titrated, detected with biotinylated antibody (BAF240), HRP-SA and ABTS, OD405. The EC50 is the concentration of titrated TGF-β1. The table prints no unit; pM is taken from the x axis.
T2 sequence (P01137 279-390 limits assumed): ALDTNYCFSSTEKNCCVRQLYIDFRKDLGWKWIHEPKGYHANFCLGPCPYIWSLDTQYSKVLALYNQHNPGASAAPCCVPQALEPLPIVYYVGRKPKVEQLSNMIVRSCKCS
Description: TGFRt15-TGFRs (HCW9218) (10 pg/mL), HCW9228 (10 pg/mL), and TGFR*t15-TGFR*s (HCW9238) (10 pg/mL) were added to a 96-well plate coated with anti-TF IgG1 and incubated at room temperature (RT). The plates were washed and blocked with a blocking buffer of 1% BSA in PBS. Then, the plates were washed, TGF-β1 (BioLegend) titrated down from 4000 pM to 31 pM was added to the plates and the plates were incubated at RT. Then, the plates were washed, 200 ng/mL of biotinylated-anti-TGFβRI antibody (BAF240, R&D Systems) was added to the wells and the plates were incubated at RT. Next the plates were washed, and 0.2 pg/mL of HRP-SA (Jackson ImmunoResearch) was added to each well and incubated at RT, followed by incubation with ABTS at RT. Absorbance at 405 nm was read.

Chain of LAP (R&D Systems) (P01137 30-278 limits assumed): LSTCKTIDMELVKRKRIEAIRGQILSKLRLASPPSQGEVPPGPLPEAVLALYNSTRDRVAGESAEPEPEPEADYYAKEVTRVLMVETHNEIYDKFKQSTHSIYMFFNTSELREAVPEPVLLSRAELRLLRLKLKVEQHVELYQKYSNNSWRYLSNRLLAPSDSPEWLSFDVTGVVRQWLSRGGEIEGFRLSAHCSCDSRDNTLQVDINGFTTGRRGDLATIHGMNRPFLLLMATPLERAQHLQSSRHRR

B1: TGFRt15-TGFRs (HCW9218) (other)
chain 1: IPPHVQKSVNNDMIVTDNNGAVKFPQLCKFCDVRFSTCDNQKSCMSNCSITSICEKPQEVCVAVWRKNDENITLETVCHDPKLPYHDFILEDAASPKCIMKEKKKPGETFFMCSCSSDECNDNIIFSEEYNTSNPDGGGGSGGGGSGGGGSIPPHVQKSVNNDMIVTDNNGAVKFPQLCKFCDVRFSTCDNQKSCMSNCSITSICEKPQEVCVAVWRKNDENITLETVCHDPKLPYHDFILEDAASPKCIMKEKKKPGETFFMCSCSSDECNDNIIFSEEYNTSNPDSGTTNTVAAYNLTWKSTNFKTILEWEPKPVNQVYTVQISTKSGDWKSKCFYTTDTECDLTDEIVKDVKQTYLARVFSYPAGNVESTGSAGEPLYENSPEFTPYLETNLGQPTIQSFEQVGTKVNVTVEDERTLVRRNNTFLSLRDVFGKDLIYTLYYWKSSSSGKKTAKTNTNEFLIDVDKGENYCFSVQAVIPSRTVNRKSTDSPVECMGQEKGEFRE[not shown - about 120 residues]
chain 2: IPPHVQKSVNNDMIVTDNNGAVKFPQLCKFCDVRFSTCDNQKSCMSNCSITSICEKPQEVCVAVWRKNDENITLETVCHDPKLPYHDFILEDAASPKCIMKEKKKPGETFFMCSCSSDECNDNIIFSEEYNTSNPDGGGGSGGGGSGGGGSIPPHVQKSVNNDMIVTDNNGAVKFPQLCKFCDVRFSTCDNQKSCMSNCSITSICEKPQEVCVAVWRKNDENITLETVCHDPKLPYHDFILEDAASPKCIMKEKKKPGETFFMCSCSSDECNDNIIFSEEYNTSNPDITCPPPMSVEHADIWVKSYSLYSRERYICNSGFKRKAGTSSLTECVLNKATNVAHWTTPSLKCIR
notes: also called TGFβR/TF/IL-15:TGFβR/IL-15RαSu protein complex
For B1, the EC50 (LAP (R&D Systems)) was 0.431 nM, the “IC50 (read off the curve)” value (TGF-β1 (BioLegend) [1]) was about 0.09 nM and the EC50 (TGF-β1 (BioLegend) [2]) was 0.857 nM.
